# From the supplement of paper PMC8728848
# The list shows a part of the results.
# B1: DrGRIFIN (Danio rerio), Q6DGJ1 (protein)
# chain: MTLRFEASCPDGLCPGWSVILKGETPPEASKFEINFLCDRDDRVAFHFNPRFTESDIICNSYMANRWGQEERCNHFPLGVEEPFQIEIYSDNDHFHVYIDKAKVMQYKHRVEDLKTITKLQVVNDVKISSLEITKKLFY
# Legend:
# Experiment in all cases: glycan array binding signal (z-score within array); higher = stronger binding
# Settings in all cases: glycan notation: IUPAC condensed, linker removed
# [1] = biological target: Gal(b1-4)GlcNAc(b1-2)[Gal(b1-4)GlcNAc(b1-6)]Man(a1-6)[GlcNAc(b1-4)][Gal(b1-4)GlcNAc(b1-2)Man(a1-3)]Man(b1-4)GlcNAc(b1-4)GlcNAc
# Outline: (§1)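 From the Consortium for Functional Glycomics database, 3228 arrays were curated, keeping only those whose protein sequence was available. Binding is given as a within-array Z-score averaged across arrays sharing a protein sequence and across linkers. Negative Z-scores can be read as non-binding.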
# [2] = biological target: Gal(b1-4)GlcNAc(b1-2)[Gal(b1-4)GlcNAc(b1-6)]Man(a1-6)[GlcNAc(b1-4)][Gal(b1-4)GlcNAc(b1-2)[Gal(b1-4)GlcNAc(b1-4)]Man(a1-3)]Man(b1-4)GlcNAc(b1-4)[Fuc(a1-6)]GlcNAc
# Outline: as §1
# [3] = biological target: Gal(b1-4)GlcNAc(b1-3)Gal(b1-3)GalNAc
# Outline: as §1
# [4] = biological target: Gal(b1-4)GlcNAc(b1-3)Gal(b1-3)GlcNAc
# Outline: as §1
# [5] = biological target: Gal(b1-4)GlcNAc(b1-3)Gal(b1-4)Glc
# Outline: as §1
# [6] = biological target: Gal(b1-4)GlcNAc(b1-3)Gal(b1-4)GlcNAc
# Outline: as §1
# [7] = biological target: Gal(b1-4)GlcNAc(b1-3)Gal(b1-4)GlcNAc(b1-2)Man(a1-3)[Gal(b1-4)GlcNAc(b1-3)Gal(b1-4)GlcNAc(b1-2)Man(a1-6)]Man(b1-4)GlcNAc(b1-4)GlcNAc
# Outline: as §1
# [8] = biological target: Gal(b1-4)GlcNAc(b1-3)Gal(b1-4)GlcNAc(b1-2)Man(a1-3)[Gal(b1-4)GlcNAc(b1-3)Gal(b1-4)GlcNAc(b1-2)Man(a1-6)]Man(b1-4)GlcNAc(b1-4)[Fuc(a1-6)]GlcNAc
# Outline: as §1
# [9] = biological target: Gal(b1-4)GlcNAc(b1-3)Gal(b1-4)GlcNAc(b1-2)[Gal(b1-4)GlcNAc(b1-3)Gal(b1-4)GlcNAc(b1-6)]Man(a1-6)[Gal(b1-4)GlcNAc(b1-3)Gal(b1-4)GlcNAc(b1-2)Man(a1-3)]Man(b1-4)GlcNAc(b1-4)GlcNAc
# Outline: as §1
# [10] = biological target: Gal(b1-4)GlcNAc(b1-3)Gal(b1-4)GlcNAc(b1-2)[Gal(b1-4)GlcNAc(b1-3)Gal(b1-4)GlcNAc(b1-6)]Man(a1-6)[Gal(b1-4)GlcNAc(b1-3)Gal(b1-4)GlcNAc(b1-2)Man(a1-3)]Man(b1-4)GlcNAc(b1-4)[Fuc(a1-6)]GlcNAc
# Outline: as §1
# [11] = biological target: Gal(b1-4)GlcNAc(b1-3)Gal(b1-4)GlcNAc(b1-3)Gal(b1-4)GlcNAc
# Outline: as §1
# [12] = biological target: Gal(b1-4)GlcNAc(b1-3)Gal(b1-4)GlcNAc(b1-3)Gal(b1-4)GlcNAc(b1-2)Man(a1-3)[Gal(b1-4)GlcNAc(b1-3)Gal(b1-4)GlcNAc(b1-3)Gal(b1-4)GlcNAc(b1-2)Man(a1-6)]Man(b1-4)GlcNAc(b1-4)GlcNAc
# Outline: as §1
# [13] = biological target: Gal(b1-4)GlcNAc(b1-3)Gal(b1-4)GlcNAc(b1-3)Gal(b1-4)GlcNAc(b1-2)Man(a1-3)[Gal(b1-4)GlcNAc(b1-3)Gal(b1-4)GlcNAc(b1-3)Gal(b1-4)GlcNAc(b1-2)Man(a1-6)]Man(b1-4)GlcNAc(b1-4)[Fuc(a1-6)]GlcNAc
# Outline: as §1
# [14] = biological target: Gal(b1-4)GlcNAc(b1-3)Gal(b1-4)GlcNAc(b1-3)Gal(b1-4)GlcNAc(b1-2)[Gal(b1-4)GlcNAc(b1-3)Gal(b1-4)GlcNAc(b1-3)Gal(b1-4)GlcNAc(b1-6)]Man(a1-6)[Gal(b1-4)GlcNAc(b1-3)Gal(b1-4)GlcNAc(b1-3)Gal(b1-4)GlcNAc(b1-2)Man(a1-3)]Man(b1-4)GlcNAc(b1-4)[Fuc(a1-6)]GlcNAc
# Outline: as §1
# [15] = biological target: Gal(b1-4)GlcNAc(b1-3)Gal(b1-4)GlcNAc(b1-3)Gal(b1-4)GlcNAc(b1-3)Gal(b1-4)GlcNAc(b1-2)Man(a1-3)[Gal(b1-4)GlcNAc(b1-3)Gal(b1-4)GlcNAc(b1-3)Gal(b1-4)GlcNAc(b1-3)Gal(b1-4)GlcNAc(b1-2)Man(a1-6)]Man(b1-4)GlcNAc(b1-4)GlcNAc
# Outline: as §1
# [16] = biological target: Gal(b1-4)GlcNAc(b1-3)Gal(b1-4)GlcNAc(b1-3)Gal(b1-4)GlcNAc(b1-3)Gal(b1-4)GlcNAc(b1-2)Man(a1-3)[Gal(b1-4)GlcNAc(b1-3)Gal(b1-4)GlcNAc(b1-3)Gal(b1-4)GlcNAc(b1-3)Gal(b1-4)GlcNAc(b1-2)Man(a1-6)]Man(b1-4)GlcNAc(b1-4)[Fuc(a1-6)]GlcNAc
# Outline: as §1
# [17] = biological target: Gal(b1-4)GlcNAc(b1-3)Gal(b1-4)GlcNAc(b1-3)Gal(b1-4)GlcNAc(b1-3)Gal(b1-4)GlcNAc(b1-2)[Gal(b1-4)GlcNAc(b1-3)Gal(b1-4)GlcNAc(b1-3)Gal(b1-4)GlcNAc(b1-3)Gal(b1-4)GlcNAc(b1-6)]Man(a1-6)[Gal(b1-4)GlcNAc(b1-3)Gal(b1-4)GlcNAc(b1-3)Gal(b1-4)GlcNAc(b1-3)Gal(b1-4)GlcNAc(b1-2)Man(a1-3)]Man(b1-4)GlcNAc(b1-4)[Fuc(a1-6)]GlcNAc
# Outline: as §1
# [18] = biological target: Gal(b1-4)GlcNAc(b1-3)Gal(b1-4)GlcNAc(b1-3)Gal(b1-4)GlcNAc(b1-3)Gal(b1-4)GlcNAc(b1-3)Gal(b1-4)GlcNAc(b1-2)Man(a1-3)[Gal(b1-4)GlcNAc(b1-3)Gal(b1-4)GlcNAc(b1-3)Gal(b1-4)GlcNAc(b1-3)Gal(b1-4)GlcNAc(b1-3)Gal(b1-4)GlcNAc(b1-2)Man(a1-6)]Man(b1-4)GlcNAc(b1-4)GlcNAc
# Outline: as §1
# [19] = biological target: Gal(b1-4)GlcNAc(b1-3)Gal(b1-4)GlcNAc(b1-3)Gal(b1-4)GlcNAc(b1-3)Gal(b1-4)GlcNAc(b1-3)Gal(b1-4)GlcNAc(b1-2)Man(a1-3)[Gal(b1-4)GlcNAc(b1-3)Gal(b1-4)GlcNAc(b1-3)Gal(b1-4)GlcNAc(b1-3)Gal(b1-4)GlcNAc(b1-3)Gal(b1-4)GlcNAc(b1-2)Man(a1-6)]Man(b1-4)GlcNAc(b1-4)[Fuc(a1-6)]GlcNAc
# Outline: as §1
# [20] = biological target: Gal(b1-4)GlcNAc(b1-3)Gal(b1-4)GlcNAc(b1-3)Gal(b1-4)GlcNAc(b1-3)Gal(b1-4)GlcNAc(b1-3)Gal(b1-4)GlcNAc(b1-2)[Gal(b1-4)GlcNAc(b1-3)Gal(b1-4)GlcNAc(b1-3)Gal(b1-4)GlcNAc(b1-3)Gal(b1-4)GlcNAc(b1-3)Gal(b1-4)GlcNAc(b1-6)]Man(a1-6)[Gal(b1-4)GlcNAc(b1-3)Gal(b1-4)GlcNAc(b1-3)Gal(b1-4)GlcNAc(b1-3)Gal(b1-4)GlcNAc(b1-3)Gal(b1-4)GlcNAc(b1-2)Man(a1-3)]Man(b1-4)GlcNAc(b1-4)[Fuc(a1-6)]GlcNAc
# Outline: as §1
# [21] = biological target: Gal(b1-4)GlcNAc(b1-3)Gal(b1-4)GlcNAc(b1-3)Gal(b1-4)GlcNAc(b1-3)Gal(b1-4)GlcNAc(b1-3)Gal(b1-4)GlcNAc(b1-3)Gal(b1-4)GlcNAc(b1-2)Man(a1-3)[Gal(b1-4)GlcNAc(b1-3)Gal(b1-4)GlcNAc(b1-3)Gal(b1-4)GlcNAc(b1-3)Gal(b1-4)GlcNAc(b1-3)Gal(b1-4)GlcNAc(b1-3)Gal(b1-4)GlcNAc(b1-2)Man(a1-6)]Man(b1-4)GlcNAc(b1-4)GlcNAc
# Outline: as §1
# [22] = biological target: Gal(b1-4)GlcNAc(b1-3)Gal(b1-4)GlcNAc(b1-3)GalNAc
# Outline: as §1
# [23] = biological target: Gal(b1-4)GlcNAc(b1-3)Gal(b1-4)GlcNAc(b1-3)[Gal(b1-4)GlcNAc(b1-3)Gal(b1-4)GlcNAc(b1-6)]GalNAc
# Outline: as §1
binder,measurement,setting,value
B1,glycan array binding signal (z-score),[1],-0.171
same,glycan array binding signal (z-score),[2],-0.136
same,glycan array binding signal (z-score),[3],-0.2
same,glycan array binding signal (z-score),[4],-0.187
same,glycan array binding signal (z-score),[5],0.006
same,glycan array binding signal (z-score),[6],-0.13
same,glycan array binding signal (z-score),[7],-0.12
same,glycan array binding signal (z-score),[8],-0.185
same,glycan array binding signal (z-score),[9],-0.039
same,glycan array binding signal (z-score),[10],-0.185
same,glycan array binding signal (z-score),[11],-0.163
same,glycan array binding signal (z-score),[12],-0.089
same,glycan array binding signal (z-score),[13],-0.163
same,glycan array binding signal (z-score),[14],-0.101
same,glycan array binding signal (z-score),[15],-0.166
same,glycan array binding signal (z-score),[16],-0.125
same,glycan array binding signal (z-score),[17],-0.177
same,glycan array binding signal (z-score),[18],-0.125
same,glycan array binding signal (z-score),[19],-0.054
same,glycan array binding signal (z-score),[20],-0.151
same,glycan array binding signal (z-score),[21],-0.156
same,glycan array binding signal (z-score),[22],-0.154
same,glycan array binding signal (z-score),[23],-0.074
